{"source": "the supplement of paper PMC11417369", "note": "± gives the standard deviation of the averaged measurements. This is one part of the list."}
{"test_system": "PfAP2-G AP2 domain (GST-tagged)", "test": "gcPBM binding intensity (ln(normalized median fluorescence intensity)); higher = stronger DNA binding", "procedure,_shortened": "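Binding intensity is the highest Masliner-normalised natural-log median intensity over replicate spots in either probe orientation. To obtain it, GST-tagged P. falciparum DNA-binding domains made in E. coli were incubated for 1 h on an Agilent 4 × 180k array of primer-extended double-stranded 36-bp intergenic genomic probes plus negative controls. Detection used Alexa488 anti-GST antibody with scanning at 488 nm.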"}
{"sequence": "TATTAATATATAGTAGTGCAATAAAGATATACTGAA", "gcPBM binding intensity (ln)": "10.2 ± 0.11"}
{"sequence": "AAAACAAACGGACACACACACATATATATATATATA [CACACA_site5924]", "gcPBM binding intensity (ln)": "11 ± 0.74"}
{"sequence": "ACATGTAAATTTACATGTACATGTAACACTTAATAT [XGTACX_site4575]", "gcPBM binding intensity (ln)": "11.2 ± 0.67"}
{"sequence": "ATACGAAAAAATAGACGTACTATGAAATAATAATTT [XGTACX_site8387]", "gcPBM binding intensity (ln)": "11.4 ± 0.84"}
{"sequence": "TACTTAAAAAAAAAAAAAATAAATATTATGTATTAT [CACACA_negctrl_site138]", "gcPBM binding intensity (ln)": "9.52 ± 0.028"}
{"sequence": "TACATATTTACTATCACACACACGATATATATAAAT [CACACA_site1242]", "gcPBM binding intensity (ln)": "10.1 ± 0.16"}
{"sequence": "TATATTATTTTTTGTGGTACATGTATTTTTACCTAA [XGTACX_site4348]", "gcPBM binding intensity (ln)": "11.4 ± 0.82"}
{"sequence": "TAATATTTTAATTGTGTGCACATTAATATTATAAAA", "gcPBM binding intensity (ln)": "10.4 ± 0.36"}
{"sequence": "TTTAGTGAGTTTGTTGTGCACTGAAAAAATTACAAT", "gcPBM binding intensity (ln)": "10.6 ± 0.35"}
{"sequence": "TAATAGTTATAAAATACACACCAGGCATGATAAATG [CACACA_site4335]", "gcPBM binding intensity (ln)": "10.015 ± 0.007"}
{"sequence": "TATAAAATATAAATTTGTACATATAAAATATTTTAT [XGTACX_site7462]", "gcPBM binding intensity (ln)": "10.8 ± 0.53"}
{"sequence": "TTTTTTAAAATATAAAATATGTACAAATATGTTGAA [GTGCAC_negctrl_site379]", "gcPBM binding intensity (ln)": "11.3 ± 1.1"}
{"sequence": "AATATTTTAAAAAAATGTACTTTTAACCCTTATTGG [XGTACX_site3490]", "gcPBM binding intensity (ln)": "11 ± 0.62"}
{"sequence": "GTATGAAAAAAATATGCATGCTAAATAATAAATGTT [TGCATGCA_site352]", "gcPBM binding intensity (ln)": "10.01 ± 0.049"}
{"sequence": "ATATATGGGTAGTATACACACTGTATATTTAGGAAT [CACACA_site7357]", "gcPBM binding intensity (ln)": "10.17 ± 0.071"}
{"sequence": "GAACAAACAAAGAAAGAACACACATACACAATATAC [CACACA_site8918]", "gcPBM binding intensity (ln)": "10.2 ± 0.18"}
{"sequence": "TAGATTTTTTTACATTGTACATATTTTTTCTTATAG [XGTACX_site293]", "gcPBM binding intensity (ln)": "11.2 ± 0.8"}
{"sequence": "TATATATATATACATACATATAAAGTTACATAAACA [CACACA_negctrl_site432]", "gcPBM binding intensity (ln)": "10.3 ± 0.67"}
{"sequence": "ATTTCGTAATTTATATCACACACATATATATATAAT [CACACA_site9021]", "gcPBM binding intensity (ln)": "10.2 ± 0.29"}
{"sequence": "ATCATTTTTATAAATTGTACAAATATTTTTTATACA [XGTACX_site7551]", "gcPBM binding intensity (ln)": "11 ± 0.35"}
{"sequence": "CTTACATAAAATATCACACACATAAAAAAACAATAT [CACACA_site1901]", "gcPBM binding intensity (ln)": "10 ± 0.19"}
{"sequence": "TATATATATATATATGTGCACATATATATGATATTA", "gcPBM binding intensity (ln)": "10.2 ± 0.33"}
{"sequence": "CATATTATTTATATTTGTACACAGCGATATGAAATA [XGTACX_site7717]", "gcPBM binding intensity (ln)": "11 ± 0.59"}
{"sequence": "TTATATAAATATAAGGTGCTGGGGTTTATTACATAT [GTGCAC_site9909]", "gcPBM binding intensity (ln)": "10 ± 0.18"}
{"sequence": "CACCAATTCATATGCACACACATCTGCATATTATAG [CACACA_site6925]", "gcPBM binding intensity (ln)": "10.3 ± 0.22"}
{"sequence": "ATATCGCACGTTTGAAGTACATAAAAACGATTAATA [XGTACX_site7684]", "gcPBM binding intensity (ln)": "11.3 ± 0.84"}
{"sequence": "TTATATTTTTTTGAGTGTACTTTTTGTGTAAAATTC [XGTACX_site2155]", "gcPBM binding intensity (ln)": "11.5 ± 0.84"}
{"sequence": "ACCCATTTTTGTTGTTCTATATATTCGTGAATCATT [CACACA_negctrl_site614]", "gcPBM binding intensity (ln)": "10.12 ± 0.064"}
{"sequence": "AATTTTTTGAATAATTGTACATATTTGGTTAAATAT [XGTACX_site3612]", "gcPBM binding intensity (ln)": "10.9 ± 0.56"}
{"sequence": "TTACTAAGAAGGATTTATTTTATAAAAATATTTATT [XGTACX_negctrl_site549]", "gcPBM binding intensity (ln)": "9.63 ± 0.028"}
{"sequence": "GAAATCTAATTTATTACACACATTTGAAAAAAATTC [CACACA_site6640]", "gcPBM binding intensity (ln)": "9.845 ± 0.092"}
{"sequence": "ATATTTTATACTTGCACACAAAATATATTAGAATGT [CACACA_site1985]", "gcPBM binding intensity (ln)": "10.2 ± 0.14"}
{"sequence": "TTATTAAAAATGGTATGTACGCACATAATATATATA [XGTACX_site3230]", "gcPBM binding intensity (ln)": "11.5 ± 0.71"}
{"sequence": "AACATCATCTCTCCACAACAACAAAAAAAAAAATAC [CACACA_negctrl_site311]", "gcPBM binding intensity (ln)": "10.2 ± 0.33"}
{"sequence": "AATACATACATACATACATGCATATATATATATATA [TGCATGCA_site462]", "gcPBM binding intensity (ln)": "10.3 ± 0.35"}
{"sequence": "TTTTTTTTTTTTTTTGCACACTTAAATTTGGTGGGG [CACACA_site2344]", "gcPBM binding intensity (ln)": "10.7 ± 0.55"}
{"sequence": "CACGCGCACGAACACACACACACACGCATATAAATA [CACACA_site7103]", "gcPBM binding intensity (ln)": "10.6 ± 0.38"}
{"sequence": "ATATTATTTTATTTTTGTACAGATATCTTTAAAAAA [XGTACX_site3734]", "gcPBM binding intensity (ln)": "10.9 ± 0.56"}
{"sequence": "TACAGATAAATATACATACATATATATATATATATA [XGTACX_negctrl_site182]", "gcPBM binding intensity (ln)": "9.86 ± 0.42"}
{"sequence": "TTTTTATTTAAAAGTAGTACAAGGGTTATTATTAAC [XGTACX_site1555]", "gcPBM binding intensity (ln)": "11.6 ± 0.98"}
{"sequence": "ACATGTATACTTTTTACGAAAAAAAAAAAAAAAAAA [CACACA_negctrl_site1638]", "gcPBM binding intensity (ln)": "10.1 ± 0.47"}
{"sequence": "TATTTTTATTGGTGAATACACACGTATATATATATT [CACACA_site2401]", "gcPBM binding intensity (ln)": "10.3 ± 0.23"}
{"sequence": "TGTTTATGTTTACATGTGCGCATTACAGAAAAAAAA [GTGCAC_site9669]", "gcPBM binding intensity (ln)": "10.7 ± 0.53"}
{"sequence": "GCTTATAAGATATGCACACACAACACTTACAAAAAA [CACACA_site817]", "gcPBM binding intensity (ln)": "10.3 ± 0.38"}
{"sequence": "AAACAAAAAAAATAAGCACACATATATATATATATA [CACACA_site8173]", "gcPBM binding intensity (ln)": "10.2 ± 0.64"}
{"sequence": "GAACAAAAAAAAAATTGTACACAATTTTTTAAAATT [XGTACX_site4455]", "gcPBM binding intensity (ln)": "11.3 ± 0.65"}
{"sequence": "ATGATTTATTATTATACACACAAAAAAAAAAAAGGA [CACACA_site264]", "gcPBM binding intensity (ln)": "10.2 ± 0.37"}
{"sequence": "AATACATACATATATACATGCATACATATAAATATA [TGCATGCA_site674]", "gcPBM binding intensity (ln)": "10.1 ± 0.2"}
{"sequence": "TCCTGTGGTTATATAACACACATTATTGCTTATAAG [CACACA_site6823]", "gcPBM binding intensity (ln)": "10 ± 0.11"}
{"sequence": "TTTTTTAAAAATATTATCATCGTAACAAGAAATCGA [CACACA_negctrl_site1111]", "gcPBM binding intensity (ln)": "10 ± 0.24"}
{"sequence": "AAAATTATATGTAATTGTACGGAATTATATACGCAA [XGTACX_site2048]", "gcPBM binding intensity (ln)": "10.9 ± 0.43"}
{"sequence": "ATACTAAATGAACACACACACATATAGATTTATAAC [CACACA_site6200]", "gcPBM binding intensity (ln)": "10.04 ± 0.057"}
{"sequence": "TATCTGTATATGTGTACACATATTCTTAACTCACGC [CACACA_site4255]", "gcPBM binding intensity (ln)": "11.7 ± 1"}
{"sequence": "ATATTGCTTATTTGATGTACGAATACACTAGTATTA [XGTACX_site4536]", "gcPBM binding intensity (ln)": "11 ± 0.59"}
{"sequence": "CTGAATTTTTATAACTGTACATATTTGATATAAAAA [XGTACX_site183]", "gcPBM binding intensity (ln)": "11.3 ± 0.89"}
{"sequence": "ATATTTAATACAAATACACACACAAATATATACATA [CACACA_site9248]", "gcPBM binding intensity (ln)": "10.1 ± 0.13"}
{"sequence": "ATGGGAAAAACATTCCGTACATACATACACATATAT [XGTACX_site8263]", "gcPBM binding intensity (ln)": "10.9 ± 0.57"}
